# Measured values as given in the supplement of paper PMC10338343.
# ± gives the standard deviation. Only a part is listed here, and it is no random draw.
# Tested on: MIWI (PIWIL1) piRISC loaded with piRNA #1 (30 nt)
# Assay: pre-steady-state target cleavage rate (min^-1); MIWI and MILI are mouse PIWI proteins and EfPiwi is from a freshwater sponge; tags in brackets are library labels; higher = faster piRNA-guided slicing of the target
# Details: guide: piRNA #1 5'p-UGAGGUAGUAGGUUGUAUAGUAUCCAGAGG; auxiliary factor: 500 nM mouse GTSF1
# Procedure, shortened: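 Active affinity-purified piRISC carrying one synthetic guide (1 nM) was mixed with a transcribed, DNA-blocked target RNA library […] in HEPES–potassium acetate buffer at 33 °C for 0–8 or 0–960 min, with or without 500 nM GTSF1 partner protein. Uncleaved targets were then sequenced and normalised to depth and to weakly complementary targets. Three trials were pooled, and k3 was capped at 0.0001 min^-1. A burst-and-steady-state fit was applied to obtain the pre-steady-state cleavage rate.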
# 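Also: 1 nM active piRISC with 0.1 nM target library at 33 °C single turnover.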
row,Sequence,pre-steady-state target cleavage rate
1,GGAGACGAUACUUUACAACCUUCUACCUCA,0.528 ± 0.024
2,GGAGACCUAUGAUAACAACCUUCUAGCUCA,< 0.0001
3,GGAGACCUAACUAUAGAAGCUACUACCUCA,0.226 ± 0.033
4,GCUCUGGAUACUAUACAACCUAAUACCUCA,1.55 ± 0.12
5,GGAGACCUAACUAUACAAACUACUACCUCA,0.482 ± 0.04
6,GGACAGGAUACUAUACAACCUACUACCUCA,1.73 ± 0.094
7,CCUCUGGAUACUAUACAACCUACUUGCUCA,1.1 ± 0.12
8,CCUCUGGAUACUAUACAACCCACUACCUCA,0.934 ± 0.041
9,GGAGACCUAACUAUACAAGCUAGUACCUCA,0.248 ± 0.026
10,CCUCUGGAUACUAUACAACCUUGAUGGAGA [g10:g30:cont:t1A],0.00564 ± 0.0039
11,GGAGUGGAUAAUAUACAACCUACUACCUCA,1.47 ± 0.077
12,GGAGACCAUACUAUCACAACCUACUACCUCA,0.936 ± 0.082
13,GGAGACCUAUCUAUACAACCAACUACGUCA,0.0108 ± 0.0024
14,CGUCUGGAUACUAUACAACCUACUAGCUCA,0.396 ± 0.06
15,GGAGACCUUACCAUACAACCUACUACCUCA,0.923 ± 0.062
16,CCUCUGGAUACUAUACAACCUUCUACCACA,0.763 ± 0.05
17,GGAGAGGAUACUAUACAACGUACUACCUGA,0.231 ± 0.037
18,GGAGACCUAUCUAUACAACCUACUACCUGCA,0.853 ± 0.073
19,GGUCUGGAUACUAUACAACCUACAUGCUCA,0.00673 ± 0.0025
20,CCUGUGGAAACUAUACAACCUACUACCUCA,1.78 ± 0.09

row,Sequence,pre-steady-state target cleavage rate
1,GGAGACGAUACUAUACAACCACUACCUCA,0.00948 ± 0.0039
2,GGACUGGAUACUAUAAACCUACUACCUCA,0.989 ± 0.12
3,GGAGACCUAUCUAUACAAGGUACUACCUCA,0.0102 ± 0.0028
4,GGAGACCAUACUAUACAACCUACUACUCA,1.21 ± 0.08
5,CGUCUGGAUAGUAUACAACCUACUACCUCA,0.381 ± 0.044
6,GGAGACCUAACUAUACAACCUACUACCACA,0.95 ± 0.12
7,CCUCUGCAUACAAUACAACCUACUACCUCA,2.02 ± 0.12
8,GGAGUGGAUUCUAAACAACCUACUACCUCA,0.994 ± 0.069
9,GGAGUGGAUACUAUACAACCUUCUACCACA,0.138 ± 0.022
10,GGAGACCUAACUAAACAACCUACUAGCUCA,0.0502 ± 0.019
11,GGAGACCAUACGUAUACAACCUACUACCUCA,0.95 ± 0.089
12,GGUCUGGAAACUAUACUACCUACUACCUCA,1.32 ± 0.082
13,GGAGAGGAUACUAUACAACCUACUCCUCA,0.00267 ± 0.0025
14,GGAGACCUUACUAUACAACCUACAACCUCA,0.776 ± 0.061
15,GGACUGGAUACUAUACAACCUACUACCUCU [g2:g27:cont:t1U],1.36 ± 0.11
16,GGAGACCUAUCUCUACAACCUACUACCUCA,0.242 ± 0.034
17,GGAGACCAUACUAAACAACCUACAACCUCA,0.378 ± 0.05
18,GGAGACGAUACUAAUACAACCUACUACCUCA,1.37 ± 0.095
19,GGAGAAGAUACUAUACAACCUACUACCUCA,2.04 ± 0.11
20,GGAGACCUAACUAUAGAACCUAGUACCUCA,0.026 ± 0.0076
